{"source": "the RNAGym collection of RNA variant scans (doi:10.7554/elife.90254)", "parents": {"B1": {"name": "OR4K15 (parent)", "chain": "GUUAACGGUCAUAGGCCAUGGAAACUAGGAGCACCAUUUCGCUGCCAGUGAAGAAAUGAACAAAGAAAAUCUGGGCCAGGCAGGCAUCAAAAGAAAUAGUCUUGCGCUCAACCAGAAAGUCUGUAAUCAUUUUAAGGGUA"}}, "note": "Read counts are not given, so values of variants with three or more changes are uncertain."}
{"variants_of": "B1", "test": "self-cleavage, relative activity (ratio to wild type); higher = more cleavage; in vitro, sequencing; the parent is a self-cleaving ribozyme"}
{"variant": "A94G A110G A126G", "self-cleavage": 0.09}
{"variant": "A51G A69G U87A", "self-cleavage": 1.26}
{"variant": "A52U U70C A96G U122C", "self-cleavage": 0.6}
{"variant": "U38C A51G A55G A62G A90G U103C", "self-cleavage": 0.48}
{"variant": "U103C A110G A129G", "self-cleavage": 0.07}
{"variant": "A24G A68U A82G A117G U133C", "self-cleavage": 0.77}
{"variant": "A59G U102C C112A A118G", "self-cleavage": 0.01}
{"variant": "A30U A51G A55G A60G A78U", "self-cleavage": 0.11}
{"variant": "A60U A67U A78G C101U U131C", "self-cleavage": 0.05}
{"variant": "A33U A111U U130C", "self-cleavage": 0.06}
{"variant": "U19A A23G A82U U103G", "self-cleavage": 0.07}
{"variant": "A67G A69G U97C", "self-cleavage": 1.04}
{"variant": "A51G A52U U57C U108C A117U", "self-cleavage": 0.01}
{"variant": "A11G A55G A62U A118G", "self-cleavage": 0.44}
{"variant": "U39C A51G U72C U103C", "self-cleavage": 0.26}
{"variant": "A63G A66G A78G U103C U131C", "self-cleavage": 0.06}
{"variant": "U12A G29A U132C", "self-cleavage": 1.03}
{"variant": "A55G A90G U97C C109U", "self-cleavage": 0.09}
{"variant": "A18U U19A A22G A91U U131C", "self-cleavage": 0.45}
{"variant": "G29A U43A U127C", "self-cleavage": 1.31}
{"variant": "U12C U120A U131C", "self-cleavage": 0.38}
{"variant": "U9C A60G A90U U127A", "self-cleavage": 1.45}
{"variant": "A24G A62G U102C", "self-cleavage": 1.74}
{"variant": "U9C U39C U72C U87A A92G A140G", "self-cleavage": 0.26}
{"variant": "A11C A54G U72C A82G U87C U132C A135U", "self-cleavage": 0.12}
{"variant": "A5U A51U U57C U87C", "self-cleavage": 0.89}
{"variant": "U19C U43C C107U", "self-cleavage": 0.01}
{"variant": "A22U A33G A110G", "self-cleavage": 0.06}
{"variant": "A27G A110G U122A", "self-cleavage": 0.12}
{"variant": "A62U A118G U120C A125C", "self-cleavage": 0.26}
{"variant": "A33U A114G G115A", "self-cleavage": 0.13}
{"variant": "U39C A59G A63C A116G", "self-cleavage": 1.04}
{"variant": "U49C A68G A92G", "self-cleavage": 0.55}
{"variant": "U2C A30G A95U A98G A118G", "self-cleavage": 0.77}
{"variant": "G41A A59G U72C G99A U132C", "self-cleavage": 0.08}
{"variant": "C40U A51U A62G", "self-cleavage": 1.1}
{"variant": "A51U A95U C128A U132C", "self-cleavage": 1.82}
{"variant": "U12A U43A A66G", "self-cleavage": 1}
{"variant": "U57C A62G A68G", "self-cleavage": 0.96}
{"variant": "A54G U87C U130C", "self-cleavage": 1.33}
{"variant": "A66U A116U A126U", "self-cleavage": 0.22}
{"variant": "U37C U100C A118G", "self-cleavage": 2.39}
{"variant": "A33G U38A A62G U103C", "self-cleavage": 0.41}
{"variant": "A5G G15C U57C A59G A63G A78G U100C U103C", "self-cleavage": 0.25}
{"variant": "A18G U57C A67G C107G U124C U127A", "self-cleavage": 0.05}
{"variant": "A55U A96G A126G", "self-cleavage": 0.72}
{"variant": "G48A A60G A69G U108A U124C", "self-cleavage": 0.06}
{"variant": "A68G U103C A111G", "self-cleavage": 0}
{"variant": "A27G A66G A114G U139A", "self-cleavage": 0.67}
{"variant": "A23G A30G A63G", "self-cleavage": 1.03}
{"variant": "U39C A82G A92U", "self-cleavage": 0.43}
{"variant": "U57C A118U U130C", "self-cleavage": 0.3}
{"variant": "A89G A94G U130C", "self-cleavage": 1.19}
{"variant": "A18G A68G A96G U102A", "self-cleavage": 0.82}
{"variant": "A23G A24G A116G U124A", "self-cleavage": 0.51}
{"variant": "A56G A90G A126G", "self-cleavage": 1.63}
{"variant": "G93A A96U A135G", "self-cleavage": 2.64}
{"variant": "U9A A47G G75A A96G U97C U108G", "self-cleavage": 0.02}
{"variant": "A51U A82G A94G", "self-cleavage": 0.72}
{"variant": "U38C A67U A78U", "self-cleavage": 0.52}
{"variant": "G75C A78G U127G", "self-cleavage": 0.13}
{"variant": "U39C A54G A111G A140G", "self-cleavage": 0.01}
{"variant": "A24C U37C G83U A117G C128U", "self-cleavage": 0.39}
{"variant": "A5C A52U A67G A117G", "self-cleavage": 1.41}
{"variant": "U38C A56G A64G U70C", "self-cleavage": 0.54}
{"variant": "A24G A111G U133C", "self-cleavage": 0.05}
{"variant": "U43C U124C A125G", "self-cleavage": 0}
{"variant": "A95G U100C A117G", "self-cleavage": 2.89}
{"variant": "A24G A55U A78U", "self-cleavage": 0.34}
{"variant": "A22G A27G A47U A110U U133C", "self-cleavage": 1.1}
{"variant": "U9C A11G A59G U130C", "self-cleavage": 0.78}
{"variant": "U49C A90G U97C A98U A126G", "self-cleavage": 0.11}
{"variant": "A62G A114G A116G", "self-cleavage": 0.04}
{"variant": "U57A A118G U120G", "self-cleavage": 0.48}
{"variant": "C6U A47U U70A", "self-cleavage": 0.47}
{"variant": "C17U U39C A52U", "self-cleavage": 0.79}
{"variant": "A5G U70A A78G", "self-cleavage": 0.5}
{"variant": "U100C A110G A118G", "self-cleavage": 0.19}
{"variant": "U37A U38C A95G", "self-cleavage": 1.81}
{"variant": "C46U A47G A90G U102C A116G", "self-cleavage": 1.16}
{"variant": "A18U C85U A110C U124C", "self-cleavage": 0.01}
{"variant": "G20C U49C C61U", "self-cleavage": 1.69}
{"variant": "A5G A27G A114G", "self-cleavage": 0.28}
